This is an account of results in publication PMC10312975 (Research Square, 2023).

Sequences of proteins named here, by UniProt entry; tags and fusion partners are left off. A change or cut given only in a name is not applied to a line headed by its entry.
UniProt O60826: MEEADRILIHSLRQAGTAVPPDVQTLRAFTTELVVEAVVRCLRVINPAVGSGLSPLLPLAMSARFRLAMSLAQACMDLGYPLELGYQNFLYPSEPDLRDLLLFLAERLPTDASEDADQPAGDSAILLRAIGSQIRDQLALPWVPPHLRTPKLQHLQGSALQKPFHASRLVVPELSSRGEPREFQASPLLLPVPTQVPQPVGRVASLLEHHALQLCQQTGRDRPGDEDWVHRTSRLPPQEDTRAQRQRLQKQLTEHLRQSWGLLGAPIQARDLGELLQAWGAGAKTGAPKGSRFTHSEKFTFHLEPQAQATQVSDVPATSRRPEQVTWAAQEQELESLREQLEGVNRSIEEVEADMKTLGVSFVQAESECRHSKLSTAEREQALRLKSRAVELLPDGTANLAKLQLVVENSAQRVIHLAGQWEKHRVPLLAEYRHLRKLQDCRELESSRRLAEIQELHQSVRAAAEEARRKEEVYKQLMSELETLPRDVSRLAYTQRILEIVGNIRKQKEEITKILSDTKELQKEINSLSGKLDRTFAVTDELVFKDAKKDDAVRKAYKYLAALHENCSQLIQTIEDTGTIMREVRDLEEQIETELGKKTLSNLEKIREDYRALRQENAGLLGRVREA
UniProt Q567U6: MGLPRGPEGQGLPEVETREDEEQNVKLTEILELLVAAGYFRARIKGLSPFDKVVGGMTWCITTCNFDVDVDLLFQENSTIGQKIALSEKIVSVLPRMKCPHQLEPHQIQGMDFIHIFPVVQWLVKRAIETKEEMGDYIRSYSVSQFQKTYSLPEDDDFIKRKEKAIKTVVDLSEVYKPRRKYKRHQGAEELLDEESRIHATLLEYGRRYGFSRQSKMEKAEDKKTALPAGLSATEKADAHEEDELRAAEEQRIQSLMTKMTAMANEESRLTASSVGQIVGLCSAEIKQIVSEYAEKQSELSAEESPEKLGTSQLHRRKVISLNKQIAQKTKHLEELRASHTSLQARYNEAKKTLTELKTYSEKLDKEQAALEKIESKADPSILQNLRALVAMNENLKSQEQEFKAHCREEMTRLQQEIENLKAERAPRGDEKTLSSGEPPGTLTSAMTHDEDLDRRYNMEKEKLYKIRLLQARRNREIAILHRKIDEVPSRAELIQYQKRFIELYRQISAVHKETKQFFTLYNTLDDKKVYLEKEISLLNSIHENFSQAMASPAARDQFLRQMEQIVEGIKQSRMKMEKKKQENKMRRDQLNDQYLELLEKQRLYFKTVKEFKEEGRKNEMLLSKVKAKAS
UniProt Q9H0A8: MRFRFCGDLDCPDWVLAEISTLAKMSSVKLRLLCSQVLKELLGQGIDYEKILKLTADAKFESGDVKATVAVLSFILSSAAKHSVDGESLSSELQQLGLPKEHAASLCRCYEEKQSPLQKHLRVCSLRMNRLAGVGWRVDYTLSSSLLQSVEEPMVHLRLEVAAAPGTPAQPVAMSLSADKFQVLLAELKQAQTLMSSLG
UniProt Q9GZQ3: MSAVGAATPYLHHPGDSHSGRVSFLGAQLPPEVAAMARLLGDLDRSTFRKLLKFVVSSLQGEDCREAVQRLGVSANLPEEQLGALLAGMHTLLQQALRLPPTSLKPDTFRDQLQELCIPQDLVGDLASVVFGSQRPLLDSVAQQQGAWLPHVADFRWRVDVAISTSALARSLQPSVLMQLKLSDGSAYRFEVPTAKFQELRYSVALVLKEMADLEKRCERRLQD
UniProt Q7Z4G1: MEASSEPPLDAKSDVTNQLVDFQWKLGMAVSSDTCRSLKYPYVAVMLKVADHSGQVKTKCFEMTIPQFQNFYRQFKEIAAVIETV
UniProt Q86VX2: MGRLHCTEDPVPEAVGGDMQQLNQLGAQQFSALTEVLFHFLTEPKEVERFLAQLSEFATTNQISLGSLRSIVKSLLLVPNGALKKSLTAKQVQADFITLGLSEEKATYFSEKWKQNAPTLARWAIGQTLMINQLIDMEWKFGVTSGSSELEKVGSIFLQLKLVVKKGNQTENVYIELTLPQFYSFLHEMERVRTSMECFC
UniProt Q9NX08: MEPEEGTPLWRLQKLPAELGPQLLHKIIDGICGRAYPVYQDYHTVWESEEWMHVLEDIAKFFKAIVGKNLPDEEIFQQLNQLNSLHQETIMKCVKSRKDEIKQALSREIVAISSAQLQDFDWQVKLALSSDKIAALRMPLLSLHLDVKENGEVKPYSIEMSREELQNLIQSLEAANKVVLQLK
UniProt Q9P000: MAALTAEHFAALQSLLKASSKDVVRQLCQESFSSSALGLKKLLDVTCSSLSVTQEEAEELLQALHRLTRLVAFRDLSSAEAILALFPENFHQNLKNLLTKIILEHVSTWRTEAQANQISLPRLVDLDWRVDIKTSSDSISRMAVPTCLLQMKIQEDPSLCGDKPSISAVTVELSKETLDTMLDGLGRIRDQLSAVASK
UniProt Q9Y6G5: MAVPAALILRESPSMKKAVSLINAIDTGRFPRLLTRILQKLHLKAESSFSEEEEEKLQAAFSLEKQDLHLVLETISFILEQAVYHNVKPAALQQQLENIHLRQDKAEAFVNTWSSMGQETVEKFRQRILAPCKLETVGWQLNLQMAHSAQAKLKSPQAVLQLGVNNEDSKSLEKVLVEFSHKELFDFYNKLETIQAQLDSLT

The target of experiment [1] is CCDC22 W142D, expressed in HEK293T (human) (UniProt O60826). Put plainly: co-IP; proteins expressed by transfection in HEK293T; Triton X-100 lysis buffer (25 mM HEPES, 100 mM NaCl, 10 mM DTT, 1 mM EDTA, 10% glycerol, 1% Triton X-100); immunoprecipitation of the expressed protein, immunoblot of partners. In general terms: A western blot detects proteins with antibodies after separation by electrophoresis.

The target of experiment [2] is CCDC22 wild type, expressed in HEK293T (human) (UniProt O60826). The experiment is described as above.
Experiment [3] concerns the target CCDC22 F164D, expressed in HEK293T (human) (UniProt O60826). Described as above.
Experiment [4] has as its target VPS35L G902E (cancer-derived), expressed in HEK293T (human) (UniProt Q7Z3J2). Described as above.
Experiment [5] deals with CCDC93 R483E, expressed in HEK293T (human) (UniProt Q567U6). Described as above.
Experiment [6] deals with VPS35L Δ10, expressed in HEK293T (human) (UniProt Q7Z3J2). The experiment is described as above.
The target in experiment [7] is VPS35L W6D, expressed in HEK293T (human) (UniProt Q7Z3J2). The experiment is described as above.
In experiment [8] the target is CCDC93 E410R/F403D, expressed in HEK293T (human) (UniProt Q567U6). The description is as above.
Experiment [9] deals with CCDC93 E410R, expressed in HEK293T (human) (UniProt Q567U6). The description is as above.
Experiment [10] addresses VPS35L A703W, expressed in HEK293T (human) (UniProt Q7Z3J2). Described as above.
Experiment [11] deals with CCDC22 R490D, expressed in HEK293T (human) (UniProt O60826). The description is as above.
Experiment [12] has as its target CCDC93 wild type, expressed in HEK293T (human) (UniProt Q567U6). Described as above.
Experiment [13] concerns the target CCDC22 V501R, expressed in HEK293T (human) (UniProt O60826). Described as above.
For experiment [14], the target named is VPS35L S829E, expressed in HEK293T (human) (UniProt Q7Z3J2). The experiment is described as above.
The target of experiment [15] is CCDC93 R483E/A492W, expressed in HEK293T (human) (UniProt Q567U6). The experiment is described as above.
Experiment [16] addresses HA-tagged VPS35L S829E, stably expressed in VPS35L knockout Huh-7 cells (human) (UniProt Q7Z3J2). Put plainly: co-IP; VPS35L knockout Huh-7 cells stably expressing HA-tagged VPS35L variants; immunoprecipitation of VPS35L, western blot.
In experiment [17] the target is HA-tagged VPS35L W6D, stably expressed in VPS35L knockout Huh-7 cells (human) (UniProt Q7Z3J2). The experiment is described as above.
For experiment [18], the target named is HA-tagged VPS35L G902E, stably expressed in VPS35L knockout Huh-7 cells (human) (UniProt Q7Z3J2). Described as above.
Experiment [19] concerns the target VPS35L wild type, expressed in HEK293T (human) (UniProt Q7Z3J2). Put plainly: co-IP; proteins expressed by transfection in HEK293T; Triton X-100 lysis buffer (25 mM HEPES, 100 mM NaCl, 10 mM DTT, 1 mM EDTA, 10% glycerol, 1% Triton X-100); immunoprecipitation of the expressed protein, immunoblot of partners.
Experiment [20] deals with VPS35L lacking the first 100 amino acids, expressed in HEK293T (human) (UniProt Q7Z3J2). Described as above.
Experiment [21] has as its target VPS35L G325E (cancer-derived), expressed in HEK293T (human) (UniProt Q7Z3J2). The description is as above.
For experiment [22], the target named is HA-tagged VPS35L G325E, stably expressed in VPS35L knockout Huh-7 cells (human) (UniProt Q7Z3J2). Put plainly: co-IP; VPS35L knockout Huh-7 cells stably expressing HA-tagged VPS35L variants; immunoprecipitation of VPS35L, western blot.
The target in experiment [23] is HA-tagged VPS35L wild type, stably expressed in VPS35L knockout Huh-7 cells (human) (UniProt Q7Z3J2). The experiment is described as above.
The target of experiment [24] is VPS35L, full length, untagged (subunit of recombinant Retriever) (human) (UniProt Q7Z3J2). The experiment can be described thus: cryo-EM structure; purified Retriever, 0.25 mg/ml in 10 mM HEPES pH 7.0, 150 mM NaCl, 2 mM MgCl2, 2 mM DTT, 5% glycerol; single particle reconstruction; both purified.

Results are given in words; binding and its absence hold for the method and conditions named. For some assays here: In cells and extracts the contact can be indirect. Some results given as binding are weak or reduced against the parent protein; the word gives no strength.

Turning to “CCDC93 (endogenous) (from UniProt Q567U6 1-631)”, the binding result in experiment [1], in experiment [2] and in [3] was “binds” each time.
Consider “COMMD4 (endogenous) (from UniProt Q9H0A8 1-199)”, for which the binding entry in [1] was “binds”; in experiment [2], “binds”; in experiment [3], “no binding”.
Regarding “COMMD5 (endogenous) (from UniProt Q9GZQ3 1-224)”, the binding result in experiment [2] is “binds”; in experiment [3], “no binding”.
In the case of “COMMD6 (endogenous) (from UniProt Q7Z4G1 1-85)”, the results for the binding result in experiment [1], in experiment [2] and in [3] were “binds”, “binds” and “no binding”, respectively.
In the case of “COMMD7 (endogenous) (from UniProt Q86VX2 1-200)”, the binding result is recorded as “binds” in experiment [2] and “no binding” in experiment [3].
With “COMMD8 (endogenous) (from UniProt Q9NX08 1-183)”, the binding entry in experiment [1] is given as “binds”; in [2], “binds”; in experiment [3], “no binding”.
As to “COMMD9 (endogenous) (from UniProt Q9P000 1-198)”, the results for the binding entry in experiment [2] and in [3] were “binds” and “no binding”, respectively.
For the substance “COMMD10 (endogenous) (from UniProt Q9Y6G5 1-202)”, the values for the binding result in experiment [2] and in experiment [3] were “binds” and “no binding”, respectively.
For the substance “DENND10 (endogenous) (from UniProt Q8TCE6 1-357)”, the binding result is reported as “no binding” in experiment [4]; “binds” in experiment [1]; “binds” in experiment [2]; “binds” in experiment [5]; “no binding” in experiment [6]; “no binding” in experiment [7]. Further, the binding entry is recorded as “binds” in experiment [3]; “no binding” in experiment [8]; “binds” in [9]; “no binding” in experiment [10]; “binds” in experiment [11]; “binds” in experiment [12]. The binding result in experiment [13] is reported as “binds”; in [14], “no binding”; in experiment [15], “binds”; in experiment [16], “no binding”; in [17], “no binding”; in experiment [18], “no binding”.
Regarding “VPS26C (endogenous) (from UniProt O14972 1-297)”, the binding entry was “binds” in experiment [4]; “binds” in [19]; “binds” in experiment [20]; “no binding” in [21]; “binds” in [7]; “binds” in [14]. Also, the binding entry in experiment [16] was “binds”; in experiment [22], “no binding”; in experiment [17], “binds”; in [23], “binds”; in [18], “binds”.
Consider “VPS26C, full length, untagged (subunit of recombinant Retriever) (from UniProt O14972 1-297)”, for which the binding entry in experiment [24] is “binds”.
